According to PubChem BioAssay AID1508624 (National Center for Advancing Translational Sciences (NCATS), 2021):
Among all 48,000 compounds or so, about 120 (0.25%) were called active. Inconclusive results (about 4%) are left out. Calls follow the shape of the dose curve; as a rule, active = well fitted activation curve with a large enough effect; inconclusive = small, poorly fitted or top-dose-only effect, or another doubt; inactive = no such curve, though single readings can be large or run the other way. This is one part of the list.

assay: Primary qHTS for Identification of Small Molecule Activators of Huntingtin-Antisense Promoter Activity; conditions: HEK293 HTT-AS promoter firefly luciferase reporter (activity 0% = vehicle and -100% = no light), 24 h; series mostly up to 57.5 µM; activity change, positive = activation: at the top concentration; also: nearly all actives have a fitted effect of over 55% in size
From the text: Assay Provider: Russell L. Margolis M.D.
Department Neurology, Johns Hopkins University School of Medicine, Baltimore, MD
Huntington's Disease (HD) is a neurodegenerative disorder caused by a CAG repeat expansion in exon 1 of huntingtin (HTT). While there are currently no disease-modifying treatments for HD, recent efforts have focused on development of nucleotide-based therapeutics to lower HTT expression. As an alternative to siRNA or oligonucleotide methods, we hypothesized that suppression of HTT expression might be accomplished by small molecules that either (1) directly decrease HTT expression by suppressing HTT promoter activity or (2) indirectly decrease HTT expression by increasing the promoter activity of HTT-AS, the gene antisense to HTT that appears to inhibit expression of HTT.
We developed and employed a high throughput screen for modifiers of HTT and HTT-AS promoter activity using luminescent reporter HEK293 cells; of the 52,041 compounds tested, we identified 898 replicable hits. We used a rigorous stepwise approach to assess compound toxicity and the capacity of the compounds to specifically lower huntingtin protein in 5 different cell lines, including HEK293 cells, HD lymphoblastoid cells, mouse primary neurons, HD iPSCs differentiated into cortical-like neurons, and HD hESCs. We found no compounds which were able to lower huntingtin without lowering cell viability in all assays, though the potential efficacy of a few compounds at non-toxic doses could not be excluded.
SEQUENCE No. (1, 2, 3, etc.); […] (e.g., Cells, Incubation, Reagent, etc.); VALUE and DESCRIPTION.
1; Reagent; 4 uL; 2,500 Hek293 luciferase reporter cells per wells
3; Compound; 23 nL; Control inhibitor / compound library
5; Reagent; 2.5 uL; Firefly Luc reagent; Dual-Glo Luciferase Reporter Assay System (Promega)
6; Time; 10 min; room temperature incubation
7; Detection; Luminescence; FLuc
NOTES (numbers refer to sequence above)
1; High-throughput screening, measuring luminescence from a Hek293 luciferase reporter, was performed in 1,536 well white-walled tissue-culture treated plates. 2,500 cells were plated in 4 µL of Opti-MEM per well using a Multidrop Combi Reagent Dispenser (ThermoFisher).
2; Assay plates were cultured for 24 hours.
3; Control inhibitor (PTC124; final concentration of 50 uM) and compound library (at final concentrations of 460 nM - 57.5 uM) were added to the assay plate using the Kalypsis Pintool Robotic System equipped with 1536 pinheads.
4; Cells were then incubated for 24 hours at 37 degrees C prior to luminescence measurements.
5; In all cases, luminescence was measured using the Dual-Glo Luciferase Reporter Assay System (Promega) following the manufacturer's instructions.
6; Room temperature incubation.
7; Luminescence signal was obtained using the PerkinElmer ViewLux plate reader. Results were normalized to vehicle control (0% activity) and zero RLU (-100% activity).

Activity change, positive = activation, inactive:
Cc1ccccc1CSc1cn(CC(=O)N2CCCCCC2)c2ccccc12 -3.47%, Cc1cccn2c(=O)c(C(=O)NCCc3ccc(S(N)(=O)=O)cc3)c(O)nc12 12.9%, CCCCn1c(NCc2ccc(N(C)C)cc2)nc2ccccc21 -29.6%, O=C(CCOc1ccccc1)N(Cc1cccnc1)c1nc2c(F)cccc2s1 -7.06%, COc1ccc(CNC(=O)COCc2cc(-c3cccs3)on2)cc1 3.42%, O=C(O)Cn1ccc2cc(S(=O)(=O)N3CCCCCC3)ccc21 -5.38%, Cc1ccc(-n2c(=O)c3c(c4cc(C)ccc4n3C)n(CC(=O)NCc3ccccc3)c2=O)cc1 -17%, CCN1CCc2nc3sc(C(=O)c4ccc(F)cc4)c(N)c3cc2C1 -17.9%, COc1ccccc1NC(=O)CSc1nc(-c2ccccc2F)nc2cc(=O)[nH]n12 -16.7%, COc1ccc(NC(=O)c2c(NCc3cccc(OC)c3)sc3c2CCCC3)cc1 -18.9%, Cc1ccc2occ(CC(=O)N(Cc3ccc(C(C)C)cc3)C3CCS(=O)(=O)C3)c2c1 (configuration not stated) -24.6%, O=C(CCC1N=C2c3ccccc3N=C(SCc3ccccc3F)N2C1=O)NCc1ccc(F)cc1 (configuration not stated) 0%, CC(C)(C)c1ccc(C(=O)N2CCC(c3nc4ccccc4o3)CC2)cc1 -14.2%, COc1ccc(-c2onc(C)c2C)cc1S(=O)(=O)NCC1CCN(Cc2cccc(F)c2)CC1 -24.7%, CC1=C(c2ccc(Cl)cc2)S(=O)(=O)N=C1N1CCC(C(=O)NCc2ccccc2F)CC1 -14.9%, COc1ccc(CCNc2nc3c(-c4cccc(C)c4)nnn3c3ccccc23)cc1OC -12.6%, Cc1ccc(Cn2c(C(=O)O)c(CNC3CCCC3)c3ccc(C)cc32)cc1 -18.7%, Cc1ccc(OCc2ccc(-c3nc(C#N)c(NCc4ccccc4Cl)o3)o2)cc1 -31.3%, Cc1cc(C)cc(-n2c(SCC(N)=O)nc3c([nH]c4ccccc43)c2=O)c1 -33.4%, O=C(Nc1ccccc1C(F)(F)F)N1CCC(CN2CCc3ccccc3C2)CC1 -10.7%, COc1ccc(C)cc1NC(=O)C(Cc1ccccc1)NS(=O)(=O)c1cccs1 (configuration not stated) -25%, O=C(NC1CC(=O)N(c2cccc(F)c2)C1)c1cc2ccccc2o1 (configuration not stated) 6.08%, CCOC(=O)c1ccc(CN(Cc2ccccc2C)S(=O)(=O)c2ccc(F)c(C)c2)cc1 -17.9%, COc1ccc(Nc2ncnc3c2cnn3-c2ccc(C)cc2)cc1Cl -39.9%, Cc1ccc2nc(-c3cccc(NC(=O)c4cccc5ccccc45)c3)oc2c1 15.7%, CCC(=O)N1CCc2cc(Br)cc(S(=O)(=O)CCC(=O)NCc3cccc(OC)c3)c21 10.1%, Cc1ccccc1CSc1nc2ccsc2c(=O)n1CCC(C)C -5.18%
